Measurements: patent US20230212288A1 (published 2023)

Target: human CD3 receptor complex (human, UniProt P07766; P09693; P04234)
Assay: cell-based or functional assay

Chain of UniProt P07766 (P07766 23-207, chain 1 of 3): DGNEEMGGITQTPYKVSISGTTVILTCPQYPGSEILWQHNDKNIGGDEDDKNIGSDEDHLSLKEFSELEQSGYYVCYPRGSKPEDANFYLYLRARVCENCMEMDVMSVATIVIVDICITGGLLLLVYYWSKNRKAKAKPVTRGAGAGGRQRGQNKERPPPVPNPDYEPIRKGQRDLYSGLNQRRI
Chain of UniProt P07766 (P09693 23-182, chain 2 of 3, further chain): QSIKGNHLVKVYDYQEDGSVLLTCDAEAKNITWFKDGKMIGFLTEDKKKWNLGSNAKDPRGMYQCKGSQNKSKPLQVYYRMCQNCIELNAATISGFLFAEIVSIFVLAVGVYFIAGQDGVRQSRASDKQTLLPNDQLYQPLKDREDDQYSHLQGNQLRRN
Chain of UniProt P07766 (P04234 22-171, chain 3 of 3, further chain): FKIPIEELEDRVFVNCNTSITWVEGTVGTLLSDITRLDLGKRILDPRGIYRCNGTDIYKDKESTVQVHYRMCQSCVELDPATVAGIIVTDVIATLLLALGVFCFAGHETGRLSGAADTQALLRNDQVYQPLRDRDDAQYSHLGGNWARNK

B1: 309_05_B08 (bispecific antibody)
chain: DIQLTQTPASLAVSLGQRATISCKASQSVDYDGDSYLNWYQQIPGQPPKLLIYDASNLVSGIPPRFSGSGSGTDFTLNIHPVEKVDAATYHCQQSTEDPWTFGGGTKLEIKGGSGGAMA[letters of about 100 residues not shown]STVTRPDFDYWGQGTLVTVSSGGGGSGGGGSGGGASNFMLTQPHSVSESPGKTVTISCTRSSGSIARNYVQWYQQRPGSAPTTVIYEDNQRPSGVPDRFSGSIDSSSNSASLTISGLKTEDEADYYCQSYDSSNQRVFGGGTKVTVLGQPAAAGGGGSQVQLQQSGAELVRPGSSVKISCKASGYAFSSYWMNWVKQRPGQGLEWIGQIWPGDGDTNYNGKFKGKATLTADESSSTAYMQLSSLASEDSAVYFCARRETTTVGRYYYAMDYWGQGTSVTVSSASAAVECPPCPAPPVAGPSVFLFPPKPKDTLMISRTPEVTCVVVDVSHEDPEVQFNWYVDGVEVHNAKTKPREEQFNSTFRVVSVLTVVHQDWLNGKEYKCKVSNKGLPAPIEKTISKTKGQPREPQVYTLPPSREEMTKNQVSLTCLVKGFYPSDIAVEWESNGQPENNYKTTPPMLDSDGSFFLYSKLTVDKSRWQQGNVFSCSVMHEALHNHYTQKSLSLSPGK
In the case of B1, the “Activity (EC50 for activation of Jurkat line cells, pM)” value is reported as 276 pM.
